The values below come from publication PMC7819943, “Rice protein-binding microarrays: a tool to detect cis-acting elements near promoter regions in rice”.

Some of the results follow.

For this experiment, the target named is T1, OsWOX13 (Oryza sativa, UniProt Q5QMM3 1-267).
T1 sequence: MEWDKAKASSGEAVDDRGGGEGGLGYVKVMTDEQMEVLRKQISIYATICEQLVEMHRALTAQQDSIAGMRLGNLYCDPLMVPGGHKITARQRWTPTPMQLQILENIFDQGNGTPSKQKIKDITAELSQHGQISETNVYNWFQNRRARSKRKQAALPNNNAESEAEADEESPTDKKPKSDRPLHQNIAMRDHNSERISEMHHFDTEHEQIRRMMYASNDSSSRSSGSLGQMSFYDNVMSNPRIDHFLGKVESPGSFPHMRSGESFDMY
Nature of the experiment: protein-binding microarray (RPBM); PBS, 2% BSA, 51.3 ng/ul salmon testes DNA, 50 uM zinc acetate, 200 nM TF, 25 C, 1 h; high values mean tight binding. The following applies: protein: recombinant; tags: N-terminal polyhistidine and DsRed monomer fusion (pET32a); label: CyDye5-dUTP incorporated in the synthesized complementary strand; 3' TTTTT single-stranded linker to array surface; dsDNA, one strand shown. The essentials: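 Polyhistidine-tagged DsRed fusions of transcription factors, joined at the N-terminus, were expressed in E. coli BL21-CodonPlus and isolated on Ni–NTA. They were incubated at 200 nM for 1 h at 25 °C on a custom Agilent array, double-stranded and BSA-blocked, in PBS with 2% BSA, salmon testes DNA and 50 µM zinc acetate. The binding signal is per-feature fluorescence intensity (arbitrary units) read on an Axon 4000B scanner after washing.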
Turning to “ACATAAATAGATATCAATATGAATCGCTGAACTTTTCGTACGGAGTCACCTAGTGCAG”, the binding signal was 16400 fluorescence intensity (a.u.).

Consider “TCATTAATTTCATGTCTCCTCTAATTTCCTCCTGAACCCTCGGAGTCACCTAGTGCAG”, for which the binding signal is 12400 fluorescence intensity (a.u.).

Regarding “AAACTTGATGGAATTCTTTAAATGTTCGATTGCTGGAGAGCGGAGTCACCTAGTGCAG”, the binding signal is 16700 fluorescence intensity (a.u.).

For “CTTGACAGTTCGTGAAACTCGTCCTAAAATCCAAAACCGGCGGAGTCACCTAGTGCAG”, the binding signal is 5220 fluorescence intensity (a.u.).

As for “AGTAATAATTTTATCAATTTATTTGTTATATATGCTGTTACGGAGTCACCTAGTGCAG”, the binding signal was 45600 fluorescence intensity (a.u.).

Turning to “TTATTATTTGTATTAATTTATTAGGATTTCTCTCATGCTTCGGAGTCACCTAGTGCAG”, the binding signal is 5850 fluorescence intensity (a.u.).

As to “GCTAATCTATGTTATGTCACGTATGTAAAAGGAAGCTTGACGGAGTCACCTAGTGCAG”, the binding signal was 3690 fluorescence intensity (a.u.).

On to “GTAATTTTGGTATAATTTAATAACTAAATTTGGTACCTCACGGAGTCACCTAGTGCAG”, for which the binding signal was 12100 fluorescence intensity (a.u.).

Turning to “TTGCCAATAAATGACTAACTAGGTTTTGGTTACGGAAGTTCGGAGTCACCTAGTGCAG”, the binding signal is 5240 fluorescence intensity (a.u.).

Take “GCTAATATGAATATATGATCATCAATCAAGATCAAGCCGTCGGAGTCACCTAGTGCAG”: the binding signal was 28700 fluorescence intensity (a.u.).

In the case of “AATCATTTTCAGTTACAAATTAAATGGTGTTTCAATAGCTCGGAGTCACCTAGTGCAG”, the binding signal was 6090 fluorescence intensity (a.u.).

As to “GATAATAATATAATAATTGATCTAATAATGCAGAAATCAACGGAGTCACCTAGTGCAG”, the binding signal is 20400 fluorescence intensity (a.u.).

Regarding “CAATTAATATATGTGTTCTATGATTAAACAAAGTGTGCAACGGAGTCACCTAGTGCAG”, the binding signal is 5510 fluorescence intensity (a.u.).

Turning to “TAGAGTAGATTATCAGATTACAGTAATATAGCTTATAGATCGGAGTCACCTAGTGCAG”, the binding signal was 4280 fluorescence intensity (a.u.).

Consider “ATTAATGAATCTAGACATATATACATCATTATAAATGTGGCGGAGTCACCTAGTGCAG”, for which the binding signal was 5760 fluorescence intensity (a.u.).

As to “AGGTGGCCCCATTAATTGATGATGAAATGCAAACCTAAATCGGAGTCACCTAGTGCAG”, the binding signal was 9480 fluorescence intensity (a.u.).

As to “ACCATTATTCCACAATTATTCTCAATCTAGTAGGATGCTCCGGAGTCACCTAGTGCAG”, the binding signal is 7530 fluorescence intensity (a.u.).

In the case of “CGATTTAATTCATTTTCAATGATTGGTTATCAAATGAATACGGAGTCACCTAGTGCAG”, the binding signal is 19400 fluorescence intensity (a.u.).

As for “CTTGACGACGATTTCATGGTAAGAATATTTTGATTACATGCGGAGTCACCTAGTGCAG”, the binding signal is 4670 fluorescence intensity (a.u.).

“GGCATTAAGAGACAGCAATCAGATTAACAAACCATCCAGGCGGAGTCACCTAGTGCAG”: the binding signal was 5790 fluorescence intensity (a.u.).

Regarding “CTTAATAACTGGGATACCTCAATAATTTCAGATGGCTGCGCGGAGTCACCTAGTGCAG”, the binding signal is 10600 fluorescence intensity (a.u.).

Turning to “ATAATTGGCATGTGTCACGTATCCAGTTTGGTATGGCAGTCGGAGTCACCTAGTGCAG”, the binding signal was 41500 fluorescence intensity (a.u.).

Consider “CAATAAACCGGTCTATCACCGTCCGATCCTTACCGACCTGCGGAGTCACCTAGTGCAG”, for which the binding signal was 4190 fluorescence intensity (a.u.).

Take “TCTAATTTTAAATATATGACATTATTAACTTTTAAATATGCGGAGTCACCTAGTGCAG”: the binding signal is 17700 fluorescence intensity (a.u.).

As for “TCTCTATAATTAAACATTCCAATTTCGAAAATGTTGTTAGCGGAGTCACCTAGTGCAG”, the binding signal was 8580 fluorescence intensity (a.u.).

Regarding “GCTAATTATTCTTTCAGTTATAGGCATCGTACCCGTCGACCGGAGTCACCTAGTGCAG”, the binding signal is 23300 fluorescence intensity (a.u.).

For “GAAGTTAGTTTATCAATTAAGCATTTGGTTTAGGGATAAGCGGAGTCACCTAGTGCAG”, the binding signal is 9300 fluorescence intensity (a.u.).

Regarding “CCATCACACAGATTAATTTGCTTCCATGCTAGGAATAAGTCGGAGTCACCTAGTGCAG”, the binding signal is 10900 fluorescence intensity (a.u.).

For the sequence “GTACTTGATCATGGATGATTAGGGCACTTGTGCGTGTGTTCGGAGTCACCTAGTGCAG”, the binding signal is 11200 fluorescence intensity (a.u.).

Turning to “GAAATGGGCCTAATTGTCGGTCACATACCGAGTAAATGGGCGGAGTCACCTAGTGCAG”, the binding signal is 4300 fluorescence intensity (a.u.).

For the sequence “TCAGTACAAAACTAGATTAATTTGAAGGCAAAATTTGCTACGGAGTCACCTAGTGCAG”, the binding signal was 6350 fluorescence intensity (a.u.).

With “AATCAAATTGAAGTATCAGATGCAGCTTCAGGTTCTGGAGCGGAGTCACCTAGTGCAG”, the binding signal was 19800 fluorescence intensity (a.u.).

“TGTTAAATTTTACATCTATGGACTGACAAATGAATATTTTCGGAGTCACCTAGTGCAG”: the binding signal is 6780 fluorescence intensity (a.u.).

With “TATATGATTTATTGAATCATTGATTTGTCACATATATCAACGGAGTCACCTAGTGCAG”, the binding signal is 29000 fluorescence intensity (a.u.).

For the sequence “CATTGATAGATTGCAAAAGCTAGCTGTCTGGGAGATGGTGCGGAGTCACCTAGTGCAG”, the binding signal was 49500 fluorescence intensity (a.u.).

Consider “TTAATGATAGGTACCTTTGGGGAGATATACAATAGTCGCTCGGAGTCACCTAGTGCAG”, for which the binding signal is 7800 fluorescence intensity (a.u.).

Regarding “AACCAAAACAGCAACCAATCAACAAGCGATCGAGCACCTTCGGAGTCACCTAGTGCAG”, the binding signal was 7160 fluorescence intensity (a.u.).

Consider “CATAAACCTAGACGTTAATTATGATGTTTTGGACTAGGTTCGGAGTCACCTAGTGCAG”, for which the binding signal is 16000 fluorescence intensity (a.u.).

In the case of “TCACCTTGATTTCAATCATTGGACAAGTGTCCTAGAAAGTCGGAGTCACCTAGTGCAG”, the binding signal was 55300 fluorescence intensity (a.u.).

Regarding “ATGCAGTCCTTGATTGTTTTGGTGCATTAATTTGTGGATCCGGAGTCACCTAGTGCAG”, the binding signal was 17800 fluorescence intensity (a.u.).

Consider “TGCCACGTCAATCTATCATAACCGGCGGGATAAATCCAAACGGAGTCACCTAGTGCAG”, for which the binding signal is 6830 fluorescence intensity (a.u.).

As to “CTAGTAGCTAATTAATTATTTGATGCTCATGGTGATGGTGCGGAGTCACCTAGTGCAG”, the binding signal was 23000 fluorescence intensity (a.u.).
